# Results from PubChem BioAssay AID588453 (National Center for Advancing Translational Sciences (NCATS), 2011).
# About 4,000 (1%) of roughly 390,000 compounds were called active. The inconclusive results got no clear call from the source; some entries with a clear call stand among them for comparison. The call rests on the fitted dose curve; in most records, active means well fitted inhibition curve with a large enough effect; inconclusive means small, poorly fitted or top-dose-only effect; inactive means no such curve, though single readings can be large or run the other way. A potency beside an inconclusive call is a rough fit, not a confirmed value.
# Biological target: Thioredoxin reductase 1, cytoplasmic (Rattus norvegicus) (UniProt O89049)
# Test: qHTS Assay for Inhibitors of Mammalian Selenoprotein Thioredoxin Reductase 1 (TrxR1): qHTS; further: nearly all actives have a fitted effect of over 65% in size
# Details: recombinant rTrxR1, NADPH fluorescence consumption, selenite substrate; series mostly up to 114 µM
# Procedure, shortened: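 Rat TrxR1 (90 nM in the dispensed reagent) was pre-reduced with 400 uM NADPH for 5 min at room temperature, then incubated with compound for 15 min. After 400 uM selenite was added, NADPH fluorescence (Ex 340/Em 450 nm) was followed for 8 min.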
# Potency means the concentration at half of the fitted maximal effect; tags describe the fitted curve by direction and shape.
# Chain of UniProt O89049 (O89049 whole entry, looked up): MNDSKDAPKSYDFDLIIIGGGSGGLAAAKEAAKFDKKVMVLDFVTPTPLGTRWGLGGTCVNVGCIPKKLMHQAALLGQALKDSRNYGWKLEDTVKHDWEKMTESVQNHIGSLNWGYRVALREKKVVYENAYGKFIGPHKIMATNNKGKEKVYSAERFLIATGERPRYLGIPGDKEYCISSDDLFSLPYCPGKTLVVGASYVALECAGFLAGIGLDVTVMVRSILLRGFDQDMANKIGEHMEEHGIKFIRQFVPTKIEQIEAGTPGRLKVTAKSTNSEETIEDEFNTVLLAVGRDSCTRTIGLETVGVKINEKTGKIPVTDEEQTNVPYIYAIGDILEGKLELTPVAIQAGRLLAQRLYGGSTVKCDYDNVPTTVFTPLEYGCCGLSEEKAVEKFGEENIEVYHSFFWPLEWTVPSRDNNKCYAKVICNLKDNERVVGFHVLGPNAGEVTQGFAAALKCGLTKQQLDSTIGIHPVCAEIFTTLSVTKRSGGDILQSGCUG
row,Structure (SMILES),Potency
1,COc1cccc(COC(=O)C2CC(=O)N(Cc3ccco3)C2)c1OC (stereo not drawn),"inconclusive: 12.6 µM [inhibitor, full curve, poor fit]"
2,O=C(c1ccco1)N(CCC(c1ccccc1)c1ccco1)Cc1ccco1 (stereo not drawn),"inconclusive: 44.7 µM [inhibitor, partial curve, poor fit]"
3,COc1cc2c3c(c1)/C(=C1/SC(NC(C)=O)=NC1=O)C(=O)N3C(C)(C)C=C2C,"inconclusive: 79.4 µM [inhibitor, partial curve]"
4,COc1ccc(NC(=S)Nc2ccccc2C(F)(F)F)cc1,"inconclusive: 70.8 µM [inhibitor, partial curve]"
5,COc1ccc2c([N+](=O)[O-])c(Cl)[nH]c2c1,active: 14.1 µM
6,O=C1NC2CCCCC2C(=O)N1OS(=O)(=O)c1ccccc1 (stereo not drawn),active: 3.55 µM
7,COc1cc(/C=C2/C(=O)NN(c3ccc(C)c(Cl)c3)C2=O)cc([N+](=O)[O-])c1O,inactive
8,CCCn1c(SCC(=O)N2CCCCC2)nnc1-c1ccco1,"inconclusive: 39.8 µM [inhibitor, partial curve]"
9,CCC1(C)N=C(c2ccc3c(c2)OCO3)CC(c2ccccc2O)N1 (stereo not drawn),"inconclusive: 11.2 µM [inhibitor, partial curve]"
10,Cc1ccc(/C=N/Nc2nc(N3CCOCC3)nc(N3CCOCC3)n2)o1,"inconclusive: 70.8 µM [inhibitor, partial curve]"
11,COC(=O)Sc1nc(N2CCOCC2)c2c(c1C#N)CC(C)(C)OC2,"inconclusive: 89.1 µM [inhibitor, single point]"
12,S=C(NCc1ccncc1)Nc1cccc(Cl)c1,"inconclusive: 39.8 µM [inhibitor, partial curve, poor fit]"
13,CCOc1ccc(N2C(=O)CC(N3CCN(C(=O)CN4CCCC4)CC3)C2=O)cc1 (stereo not drawn),"inconclusive: 35.5 µM [inhibitor, partial curve]"
14,O=C(c1ccc2c(c1)OCCO2)C1CCN(S(=O)(=O)c2ccc(F)cc2)CC1,inactive
15,COc1ccc(C2=NN(C(=O)CSc3nnc(-c4ccccc4F)o3)C(c3ccco3)C2)cc1 (stereo not drawn),"inconclusive: 70.8 µM [inhibitor, partial curve, poor fit]"
16,COc1cccc2sc3cc(NCC[C@@H]4CCCN4C)ccc3c(=O)c12,"inconclusive: 70.8 µM [inhibitor, partial curve, poor fit]"
17,COc1cc([C@@H]2c3cc4c(cc3[C@H](O)C3COC(=O)[C@@H]32)OCO4)cc(OC)c1OC (stereo partly drawn),inactive
18,O=C1C(Cl)=C(N2CCN(c3ccccc3[N+](=O)[O-])CC2)C(=O)c2ccccc21,active: 0.794 µM
19,CN1CCc2c(sc3c2C(=O)NC(c2ccc(-c4cccc(Cl)c4)o2)N3)C1 (stereo not drawn),"inconclusive: 79.4 µM [inhibitor, single point]"
20,Cn1c(SCC(=O)Nc2ccc(Br)cc2F)nnc1-c1ccco1,"inconclusive: 31.6 µM [inhibitor, partial curve, poor fit]"
21,COC(=O)C1CCN(c2cc(=O)n(-c3ccc(OC)cc3)c(=O)[nH]2)CC1,active: 28.2 µM
22,CC(=O)N1CCN(/[N+]([O-])=N/Oc2ccc([N+](=O)[O-])cc2[N+](=O)[O-])CC1,active: 10 µM

row,Structure (SMILES),Potency
1,CCC(COC)NC(=O)CCc1nnc(Cc2c[nH]c3ccccc23)o1 (stereo not drawn),"inconclusive: 79.4 µM [inhibitor, single point]"
2,CCc1ccc2occ(CC(=O)Nc3c(C(=O)Nc4ccc(Cl)cc4)oc4ccccc34)c2c1,inactive
3,COc1ccc(CNC(=S)Nc2cccc(C)c2C)cc1,inactive
4,O=C(/C=C/c1cccc(Cl)c1)c1nc2ccccc2[nH]1,"inconclusive: 14.1 µM [inhibitor, partial curve, poor fit]"
5,Cc1ccc(/C=C2/C(=O)N(c3ccccc3)C(=S)N2C)o1,active: 20 µM
6,CCOC(=O)C1=CN(Cc2ccco2)S(=O)(=O)N(CC)C1c1ccc(F)c(Cl)c1 (stereo not drawn),"inconclusive: 79.4 µM [inhibitor, single point]"
7,Cc1ccc(S(=O)(=O)NC(C(=O)Oc2ccc3ccc(=O)oc3c2)c2ccccc2)cc1 (stereo not drawn),active: 50.1 µM
8,COc1ccc(-c2cn3c(n2)sc2cc(C(=O)Nc4ccccc4F)ccc23)cc1,inactive
9,O=C(COC(=O)/C=C/c1ccc(Br)o1)NC1CCCCC1,"inconclusive: 12.6 µM [inhibitor, full curve, poor fit]"
10,Cc1nn(C)c(C)c1CNC(=O)c1cnn2c1NC(c1ccccc1)CC2C(F)(F)F (stereo not drawn),inactive
11,N#CC1=C2SCN(c3ccccc3)CN2C(=O)CC1c1cccs1 (stereo not drawn),"inconclusive: 28.2 µM [inhibitor, full curve, poor fit]"
12,CSCC[C@H](NC(=O)N1CCn2c1nc1ccccc12)C(=O)NCc1ccc(F)cc1,"inconclusive: 89.1 µM [inhibitor, single point]"
13,COc1cc2nc(N3CCCN(C)CC3)nc(NC3CCN(C)CC3)c2cc1OC,"inconclusive: 56.2 µM [inhibitor, partial curve]"
14,COc1ccc(CCNCC(=O)Nc2ccc(C)c(S(=O)(=O)N(C)C)c2)cc1,inactive
15,CC1CCCN(C(=O)c2cc(-c3ccco3)nc3ccccc23)C1 (stereo not drawn),"inconclusive: 10 µM [inhibitor, partial curve, poor fit]"
16,CCOc1cccc(CNc2ccc(O)cc2)c1OCc1ccccc1Cl,"inconclusive: 20 µM [inhibitor, single point]"
17,CCN(Cc1ccc(OC)c(F)c1)C(=O)CCl,active: 25.1 µM
18,COc1ccc(NC(=O)Nc2ccc3c(c2)C(=O)N([C@H](C)CO)C[C@H](C)[C@@H](CN(C)C(=O)Nc2ccc4c(c2)OCO4)O3)cc1,"inconclusive: 20 µM [inhibitor, full curve, poor fit]"
19,S=c1nc2ccccc2c2nc(-c3cccnc3)[nH]n12,"inconclusive: 3.16 µM [inhibitor, full curve, poor fit]"
20,Cc1ccc(C)c(N2CCN(C(=O)CCS(=O)(=O)c3ccc4c(c3)CC(=O)N4C)CC2)c1,inactive
21,O=C1CC(c2ccco2)CC(O)=C1C=NCCN1CCNCC1 (stereo not drawn),"inconclusive: 56.2 µM [inhibitor, partial curve]"
